Experimental data taken from PubChem BioAssay AID652104 (National Center for Advancing Translational Sciences (NCATS), 2013).
About 7,200 (1.8%) of roughly 410,000 compounds were called active. The inconclusive results got no clear call from the source; some entries with a clear call stand among them for comparison. Calls follow the shape of the dose curve; as a rule, active = well fitted activation curve with a large enough effect; inconclusive = small, poorly fitted or top-dose-only effect, or another doubt; inactive = no such curve, though single readings can be large or run the other way. Potencies of inconclusive entries are left out as doubtful fits.

Assay: qHTS of TDP-43 Inhibitors; also: nearly all actives have a fitted effect of over 50% in size; as to growth rescue (activation): % of control where 0% means no effect
Conditions: TDP-43 expressing yeast growth rescue, BacTiter-Glo, 24 h; growth rescue (activation): at 46.1 µM (top of the series) unless noted
How it was run: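 Growth rescue of TDP-43-toxic yeast measured as ATP luminescence (BacTiter-Glo). Cells grown to mid-log in raffinose, induced in galactose at OD600=0.02, exposed to compound 24 hr at 30 deg C.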
Potency is read from the fitted curve at half-maximal effect; tags tell the direction and shape of the fitted curve.

SMILES | Potency | growth rescue (activation)
O=C(Nc1nnc(-c2ccc(Cl)cc2)o1)C1=COCCO1 | inconclusive [activator, single point] | –
COc1cc(OC)c(C(=O)O/N=C(\N)c2cccc(C)c2)cc1OC | inconclusive [activator, single point] | –
COc1ccc2cc(C(=O)N/N=C/c3sc4ccccc4c3O)ccc2c1 | – | inactive: -10.8%
Nc1ccc(Oc2ccc(Br)cc2)cc1 | inconclusive [activator, single point] | –
Cn1c(=O)c2c(SCC(=O)N3CCc4ccccc43)nc(-c3cccc(F)c3)nc2n(C)c1=O | – | inactive: 10.5% [at 9.22 µM]
CCOc1ccc(S(=O)(=O)N2CCN(c3cc(Cl)ccc3Cl)CC2)c2ccccc12 | – | inactive: 11.9%
Cc1nnc(NC(=O)c2sc3ccccc3c2Cl)s1 | – | inactive: -27.3%
Fc1cccc2sc(Nc3nnc(-c4ccco4)o3)nc12 | – | inactive: -62%
CC(C)(O)C(=O)NNC(=S)Nc1cccc(C(F)(F)F)c1 | inconclusive [activator, partial curve] | –
CCOc1ccc2ncc(S(=O)(=O)c3ccccc3)c(N3CCN(c4ccccc4)CC3)c2c1 | – | inactive: 19.2%
Cc1cc(C)c2c(CC(=O)Nc3ccc(S(=O)(=O)N4CCCC(C)C4)cc3)coc2c1 (stereo unspecified) | – | inactive: 1.49%
COCCNC(=O)CSc1cc(-c2ccccc2)c2ccc(OC)cc2n1 | inconclusive [activator, single point] | –
Cc1ccc(OCC(=O)Nc2cccc(OCc3cc(=O)n4ccccc4n3)c2)cc1C | – | inactive: 0%
Fc1ccccc1/C=N/n1c(C2CCCCC2)n[nH]c1=S | inconclusive [activator, single point] | –
Cc1oc2cc(O)cc(O)c2c(=O)c1-c1ccc2c(c1)OCCCO2 | inconclusive [activator, single point] | –
CCOc1cccc2cc(-c3cn4c(n3)sc3cc(C)ccc34)c(=O)oc12 | – | inactive: 6.67%
O=C1C2C3C=CC(C4CC34)C2C(=O)N1/N=C/c1ccc([N+](=O)[O-])o1 (stereo unspecified) | inconclusive [activator, full curve] | –
CCC12CC3CC(C1)CC(C(=O)O)(C3)C2 | active: 14.1 µM | –
CCNC(=S)N1CCN(CCN=CC2=C(O)CC(C)(C)CC2=O)CC1 | inconclusive [activator, partial curve] | –
COc1cccc(Cn2cnc3c([N+](=O)[O-])c(C)c(C)cc32)c1 | inconclusive [activator, partial curve] | –
COCCNc1nc(-c2ccc(Cl)cc2C)c2sccc2n1 | active: 22.4 µM | –
